According to publication PMC4336329 (PLoS ONE, 2015):
Screen size: about 310,000 compounds; about 14,000 (4.5%) showed an effect of 50% or more. The effect is printed as a negative number. The list shows a part of the results.

Target: human ether-à-go-go-related gene (hERG) potassium channel (human, UniProt Q12809)
Assay: primary screen, population patch clamp on CHO cells stably expressing hERG
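Further: peak tail current of the secondary pulse compared with the same well before compound.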

Chain of human ether-à-go-go-related gene (hERG) potassium channel (Q12809 whole entry, looked up): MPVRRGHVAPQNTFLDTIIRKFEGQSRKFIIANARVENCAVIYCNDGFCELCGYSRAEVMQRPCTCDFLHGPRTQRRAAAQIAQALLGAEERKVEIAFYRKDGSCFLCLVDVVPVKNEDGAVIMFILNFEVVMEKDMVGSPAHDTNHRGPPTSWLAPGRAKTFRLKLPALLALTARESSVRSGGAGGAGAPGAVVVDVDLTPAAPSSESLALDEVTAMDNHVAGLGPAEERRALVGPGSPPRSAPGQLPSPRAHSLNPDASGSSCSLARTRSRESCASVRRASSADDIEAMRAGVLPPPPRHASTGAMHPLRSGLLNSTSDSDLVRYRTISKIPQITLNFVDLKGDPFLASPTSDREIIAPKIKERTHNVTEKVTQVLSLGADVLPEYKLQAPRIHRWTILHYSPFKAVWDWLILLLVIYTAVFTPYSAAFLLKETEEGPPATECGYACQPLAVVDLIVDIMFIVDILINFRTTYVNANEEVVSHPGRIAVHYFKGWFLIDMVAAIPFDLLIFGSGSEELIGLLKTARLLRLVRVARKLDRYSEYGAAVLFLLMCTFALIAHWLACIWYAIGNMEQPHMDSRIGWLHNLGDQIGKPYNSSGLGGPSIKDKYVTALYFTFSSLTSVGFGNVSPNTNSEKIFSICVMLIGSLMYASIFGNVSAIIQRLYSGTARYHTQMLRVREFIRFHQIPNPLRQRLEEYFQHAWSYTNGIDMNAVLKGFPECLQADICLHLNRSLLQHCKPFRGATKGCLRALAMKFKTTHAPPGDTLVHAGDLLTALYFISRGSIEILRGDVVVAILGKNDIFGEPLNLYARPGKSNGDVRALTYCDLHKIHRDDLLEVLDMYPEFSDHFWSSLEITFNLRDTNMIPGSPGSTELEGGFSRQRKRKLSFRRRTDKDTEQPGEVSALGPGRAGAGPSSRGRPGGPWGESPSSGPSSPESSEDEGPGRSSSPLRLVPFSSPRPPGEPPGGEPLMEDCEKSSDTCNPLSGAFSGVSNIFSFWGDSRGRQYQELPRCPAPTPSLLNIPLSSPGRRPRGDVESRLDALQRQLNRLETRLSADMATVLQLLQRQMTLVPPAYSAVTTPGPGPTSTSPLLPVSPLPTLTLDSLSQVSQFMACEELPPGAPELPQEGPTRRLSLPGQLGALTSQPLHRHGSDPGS

Point of comparison: `CCCCC(=O)N1CCN(c2nc3ccc(OCC)cc3s2)CC1`, “hERG current change (%, negative = inhibition) at 10uM” value -35.5%. Against it:
- CCCN(Cc1ccccc1)C(=S)Nc1ccc(C(C)=O)cc1 — higher, -12.1%
- Cc1cc(Nc2cccc([N+](=O)[O-])c2)c2ccccc2n1 — lower, -76.9%
- O=C(Nc1cccc(F)c1)NC1(C(=O)N2CCOCC2)CCCCC1 — higher, 7.24%
- COc1ccc(NC(=O)C2CC(=O)N=C(N)S2)cc1 (centres unmarked) — higher, 16.8%
- O=C(c1cc(-c2ccccc2)nc2ccccc12)N1CCN(c2ccccc2O)CC1 — higher, -10.9%
- Cc1ccc(C(=O)N/N=C/c2cc(C)n(-c3ccc(Br)cc3)c2C)cc1[N+](=O)[O-] — higher, 14.6%
- O=C(NCCc1c[nH]c2ccccc12)C1CCN(S(=O)(=O)c2ccccc2)CC1 — higher, -17.1%
- Cc1ccc(S(=O)(=O)N2CCN(C(=O)Cc3c(F)cccc3Cl)CC2)cc1 — higher, 8.4%
- COC(=O)c1cn(NC(=O)c2ccccc2[N+](=O)[O-])c(=O)c2ccccc12 — higher, 5.56%
- COc1ccccc1CNS(=O)(=O)c1ccc2c(c1)NC(=O)CO2 — higher, 15.2%
- Oc1c(C(c2cccc(F)c2)N2CCN(Cc3ccccc3)CC2)sc2ncnn12 (centres unmarked) — lower, -49.5%
- CC(C)(C)C(=O)N1CCC(O)(CS(=O)(=O)Cc2ccccc2Cl)CC1 — higher, -1.96%
- Cc1cccc(NC(=S)NCc2cccs2)c1C — higher, 1.28%
- Cc1ccc(CSCCNC(=O)c2ccc(N(C)S(=O)(=O)c3ccccc3)cc2)cc1 — higher, -19.3%
- CC(=O)Cn1nnc2sc3c(c2c1=O)CCC(C(C)(C)C)C3 (centres unmarked) — higher, 0.891%
- O=C(CCS(=O)(=O)Cc1ccccc1)Nc1nc2c(s1)CCCC2 — higher, -2.93%
- CSCC[C@H](NC(=O)OC(C)(C)C)C(=O)NCC1CCC(C(=O)O)CC1 (some centres unmarked) — higher, -30.3%
- O=C(Cn1cnc2ccccc2c1=O)NC1CCCc2ccccc21 (centres unmarked) — higher, 6.08%
- NNC(=O)CN1C(c2ccccc2Br)=Nc2ccc(Br)cc2C1c1ccccc1 (centres unmarked) — higher, -1.49%
- COc1cc(C(=O)OCC(=O)NCCC2=CCCCC2)ccc1OCC(C)C — higher, 6.73%
- CC(=O)Nc1ccc(C(=O)CS(=O)(=O)c2ccc(C)cc2)cc1 — higher, -11.5%
- Cc1cccc2nc(CSc3nc4ccccc4o3)cn12 — higher, -19.6%
- Cc1ccc(OCC(O)CN2CCN(c3ccc(C)cc3)CC2)cc1 (centres unmarked) — higher, -28%
- Cc1ccc(Nc2nc3nonc3[nH]c2=O)cc1 — higher, 11.4%
- O=C(/C=C/c1cccc(Br)c1)OCC(=O)N1CCN(c2ccccc2)CC1 — higher, -3.38%
- Cc1cc2ccccc2c(=O)n1CC(=O)Nc1ccc2c(c1)OCCO2 — higher, -2.46%
- Cc1ccsc1CN(C)C(=O)c1ccc(Oc2ccccc2)cc1 — higher, -26.8%
- CC1CCCN(C(=S)Nc2ccc(Nc3ccccc3)cc2)C1 (centres unmarked) — higher, 19%
- Cc1occc1C(=O)Nc1ccccc1C#N — higher, 19.8%
- Oc1ccc(N2CCN(c3nnnn3-c3ccccc3)CC2)cc1 — higher, -2.93%
- COc1ccc(-c2cc(C(F)F)n3ncc(C(=O)Nc4ccc(C(=O)N5CCOCC5)cc4)c3n2)cc1 — higher, 0.413%
- O=C(O)CSc1cn(Cc2ccccc2)c2ccccc12 — higher, 17.6%
- Cn1c(=O)c(Oc2ccc(F)cc2)c(O)c2ccccc21 — higher, 1.22%
- Cc1[nH]c2ccc(F)cc2c1CCN1C(=O)OC(C)(C)C1(C)O (centres unmarked) — higher, -7.23%
- COc1cc(/C=N/NC(=O)NC23CC4CC(CC(C4)C2)C3)ccc1OCC(N)=O — lower, -57%
- Cc1nc(NC(=O)c2ccccc2)nc2cc3c(cc12)OCO3 — higher, 7.75%
- Cc1c(C)c2ccc(OCC(=O)Nc3ccc(CN4CCOCC4)cc3)cc2oc1=O — lower, -36.2%
- CCc1nnc(NC(=O)C2CCN(c3nccc(C)n3)CC2)s1 — higher, 10.8%
- CCN(CC(=O)NCCc1ccc(S(N)(=O)=O)cc1)Cc1nc2ccccc2c(=O)[nH]1 — higher, 17.9%
- COc1ccc(CNC(=O)/C=C/c2ccccc2[N+](=O)[O-])cc1 — higher, 10.6%
- COc1ccc(CN2CCN(C(=O)Cn3c(=O)oc4cc(Cl)ccc43)CC2)c(OC)c1OC — higher, -24.3%
- COc1ccc(-c2cc3c(=O)n(CC(=O)Nc4ccc(Cl)cc4)ncn3n2)cc1 — higher, 18.3%
- O=S(=O)(c1ccc(NC(=S)NC2CCCC2)cc1)N1CCCC1 — higher, 3.45%
